In PubChem BioAssay AID463173 (ICCB-Longwood Screening Facility, Harvard Medical School, 2010):
Out of some 52,000 compounds screened, about 4,300 (8.3%) were called active. Rule as the data show it: active = survival mostly below about 52% (no sharp cut-off); inactive = mostly above about 56%. Some of the results follow.

Each compound was assayed on DeltatarO mutant (assay: S. aureus survival, RN4220 and DeltatarO strains – OD600, teichoic acid synthesis inhibitors, primary screen (AID 463173)). Details: S. aureus RN4220 wild type/DeltatarO growth, OD600, 18 h, hits give low values, screened at 18.75 µg/mL (by protocol).

Compound	survival
COc1cccc(CNC(=O)CSc2ncc3c(n2)-c2cc(Cl)ccc2N(C)S3(=O)=O)c1	inactive: 92%
Cc1coc2c(C)c3oc(=O)c(CC(=O)NCc4ccccc4)c(C)c3cc12	inactive: 71%
CCOc1ccccc1NC(=O)c1sc2nc(C)cc(C)c2c1N	inactive: 132%
Cc1c(Cl)cccc1NC(=O)CN1C(=O)COc2ccc(S(=O)(=O)N3CCCCCC3)cc21	inactive: 62%
CCCN1C(=O)C(O)(CC(=O)c2ccc(OC)c(OC)c2)c2ccccc21 (stereo not drawn)	inactive: 146%
CN1CCN(C(=O)c2ccc3c(c2)N(Cc2cccc(Cl)c2)C(=O)c2ccccc2S3(=O)=O)CC1	inactive: 72%
C/C(=C\C(=O)c1cccnc1)Nc1ccccc1O	inactive: 103%
O=C(Nc1ccc2nc(SCCOc3ccccc3)sc2c1)c1cccs1	inactive: 83%
COc1ccc(C(=O)N(Cc2ccc(N(C)C)cc2)Cc2ccco2)cc1Cl	inactive: 72%
Cc1cc(-c2ccc(C)c(S(=O)(=O)Nc3ccccc3C(F)(F)F)c2)on1	inactive: 120%
Cc1ccc2c(CC(=O)NCc3ccccc3)coc2c1C	inactive: 90%
OC(CNCc1ccccn1)COc1ccc(OCC(O)CNCc2ccccn2)cc1 (stereo not drawn)	inactive: 96%
Cc1ccc(C)n1-c1c(C(=O)NCC(C)c2ccccc2)sc2ncccc12 (stereo not drawn)	inactive: 69%
COc1cccc(CNC(=O)CN2C(=O)CSc3c2c(C)nn3-c2ccccc2)c1OC	inactive: 78%
COc1ccc(CNC(=O)Cn2c(=O)oc3cc(S(=O)(=O)N4CCC(C)CC4)ccc32)cc1	inactive: 112%
CCOc1ccc(C(=O)Nc2cccc(OCc3cc(=O)n4ccccc4n3)c2)cc1	inactive: 119%
Cc1ccccc1NS(=O)(=O)c1nnc(NC(=O)c2ccc(Cl)cc2)s1	active: 41%
CCOC(=O)c1[nH]c(C)c(CCC(=O)Nc2ccc(C(C)=O)cc2)c1C	inactive: 72%
O=S(=O)(Nc1cccc(-c2ccc(N3CCCCCC3)nn2)c1)c1ccc(F)cc1	inactive: 79%
Cc1cccc(CNS(=O)(=O)c2csc(C(N)=O)c2)c1	inactive: 76%
O=C1C(c2cccc(Br)c2)N(CCc2ccccc2)C(=O)CN1C1CCCCC1 (stereo not drawn)	inactive: 102%
CCOc1cccc(CNCCNC(=O)c2nonc2N)c1	inactive: 61%

Compound	survival
COc1ccc(NC(=O)CCCn2c(=O)c3cccn3c3ccccc32)c(OC)c1	active: 57%
COc1ccc(C(=O)Oc2c(Sc3ccc(Cl)cc3)c(C)nn2C(C)(C)C)cc1OC	inactive: 56%
O=C(NCCc1csc(-c2ccc(C(F)(F)F)cc2)n1)C(=O)Nc1cc(F)ccc1F	inactive: 102%
CCCCN(C)CCNC(=O)C1CCCN(S(=O)(=O)c2ccc3c(c2)oc(=O)n3C)C1 (stereo not drawn)	inactive: 104%
CCOC(=O)c1c(C)[nH]c(CCC(=O)NCCCN2CCN(c3cc(Cl)ccc3C)CC2)c1C	inactive: 99%
Cc1c(CCNC(=O)Cc2ccc(F)cc2)sc2nc(-c3ccc(F)cc3)nn12	inactive: 80%
O=C(Cn1c(=O)c2ccccc2n(CC(=O)Nc2ccc(Cl)cc2)c1=O)NCCc1ccccc1	inactive: 75%
CCc1ccccc1NC(=O)Cn1c(=O)n(CCCS(=O)(=O)C2CCCCC2)c(=O)c2ccccc21	inactive: 86%
O=C(CCc1ccccc1)NCc1ccco1	inactive: 88%
Cc1cccc(Cn2c(=O)n(Cc3ccc(C(=O)NC4CCN(Cc5ccccc5)CC4)cc3)c(=O)c3ccccc32)c1	inactive: 86%
Oc1ccc(Nc2nc3ccccc3n3cnnc23)cc1	inactive: 85%
Cc1[nH]c(=O)[nH]c(=O)c1NC(=O)CSc1nc2c(C)cccc2cc1C#N	inactive: 102%
CCOC(=O)c1cnc2c(C)cc(C)cc2c1Nc1cccc(C(=O)O)c1	active: 5%
CCOCCCNC(=O)CN1C(=O)COc2ccc(S(=O)(=O)N3CCCCCC3)cc21	inactive: 81%
Cc1ccc(C2c3c(-c4cc(C)ccc4O)n[nH]c3C(=O)N2Cc2ccco2)cc1 (stereo not drawn)	active: 1%
O=C(Nc1cccc2cccnc12)c1ccccc1[N+](=O)[O-]	inactive: 68%
COc1ccc2oc(=O)c(C(=O)NCCO)cc2c1	inactive: 95%
CCCN1CC=C2C(C#N)=C(N)C(C#N)(C#N)C(c3ccc(OCC(N)=O)cc3)C2C1 (stereo not drawn)	inactive: 81%
Cc1ccc(S(=O)(=O)c2cnc(SCC(=O)Nc3cccc(Cl)c3)nc2N)cc1C	inactive: 54%
CCN(CC)C(=O)Cn1cc(SCC(=O)Nc2cccc(F)c2)c2ccccc21	inactive: 109%
COc1ccc(C(CC(=O)O)NC(=O)c2cc3ccccc3oc2=O)cc1OC (stereo not drawn)	inactive: 60%
CSc1ccc(NC(=O)C(C)N2CCN(C)CC2)cc1 (stereo not drawn)	inactive: 82%

Compound	survival
CCOC(=O)c1ccccc1NC(=O)NC(C)c1c(-n2cccc2)sc(C)c1C (stereo not drawn)	inactive: 57%
Cc1ccc(C)c(NC(=O)CN2C(=O)c3cccc4cccc2c34)c1	inactive: 56%
O=C(O)/C=C/c1cccc(N=NN2CCCCC2)c1	inactive: 92%
O=c1c2ccccc2n2c(-c3ccccc3O)nnc2n1Cc1ccc(F)cc1	inactive: 95%
Cc1cccc(Cn2ccn(Cc3ccc(Cl)cc3)c(=O)c2=O)c1	inactive: 121%
CCN(CC)C(=O)c1sc(NC(=O)c2nc3ncccn3n2)c(C(=O)OC)c1C	inactive: 137%
Cn1c(-c2ccc3c(c2)OCO3)cnc1NCc1cc(Cl)ccc1O	inactive: 70%
O=C(CSc1nc(-c2cccc(Cl)c2)nc2cc(=O)[nH]n12)Nc1ccccc1	inactive: 71%
CC(=O)c1ccc(N2CCN(c3ccc(NC(=O)c4cccs4)cc3C(=O)O)CC2)cc1	inactive: 68%
CC(C(=O)NCc1ccccc1Cl)n1ccc2cc(S(=O)(=O)N3CCCCC3)ccc21 (stereo not drawn)	inactive: 94%
COc1cc(C2C(C#N)=C(N)Oc3n[nH]c(C(F)(F)F)c32)ccc1OCC(N)=O (stereo not drawn)	inactive: 72%
Cc1ccc(NC(=O)CSc2nnc3nc(C)cc(C)n23)cc1	inactive: 51%
Cc1ccc(-n2ncc(C(=O)NCCCN3CCCCC3)c2C2CCN(C(=O)OC(C)(C)C)CC2)c(C)c1	active: 46%
O=C(C1c2ccccc2Oc2ccccc21)N1CCCCC1	inactive: 81%
CCc1cccc(C)c1NC(=O)CCCn1c(=O)c2cccn2c2cccnc21	inactive: 87%
COc1ccc(Cn2c(C(=O)O)c(CNCC(C)c3ccccc3)c3ccc(OC)cc32)cc1 (stereo not drawn)	inactive: 68%
Cc1ccc(C)c(N2CCN(C(=O)Nc3cn(CC(C)C)c(=O)c4ccccc34)CC2)c1	inactive: 124%
COc1ccc(NC(=O)CN2C(=O)C(c3ccc(C(C)(C)C)cc3)=NC2(C)C)cc1Cl	inactive: 108%
CCCCCC(=O)N1c2ccccc2C(C)(c2ccccc2)CC1(C)C (stereo not drawn)	active: -2%
O=C(c1ccccc1Br)N(Cc1ccco1)C1CCS(=O)(=O)C1 (stereo not drawn)	inactive: 82%
O=C(c1ccc2c(c1)N(Cc1ccccc1)C(=O)c1ccccc1S2(=O)=O)N1CCCC1	inactive: 72%
O=C(N/N=C/c1ccc(-c2ccc(Cl)c(C(=O)O)c2)o1)c1ccncc1	inactive: 68%

Compound	survival
CCC(Sc1nc2c(sc3ccccc32)c(=O)n1CCc1ccccc1)C(=O)N(CC)CC (stereo not drawn)	inactive: 54%
COc1cccc(NC(=O)CSc2nnc(COc3ccc(Cl)cc3)o2)c1	active: 57%
COc1ccc(NC(=O)NCCc2c(C)nn(C)c2C)c(OC)c1	inactive: 90%
Cc1nnc2c(N3CCN(c4ccccc4F)CC3)nc3ccccc3n12	inactive: 67%
CCOC(=O)c1cc(-c2ccc(C)cc2)n(CCC(=O)Nc2nc3c(C)cccc3s2)c1C	inactive: 83%
Cc1cc(-n2c(SCC(=O)NCc3ccccc3)nc3ccsc3c2=O)ccc1Cl	inactive: 87%
Cc1cccc(Cc2cnc(NC(=O)C3Cc4ccc(C)cc4C(=O)O3)s2)c1 (stereo not drawn)	inactive: 85%
COc1ccccc1N1CCN(C(=O)C2CCN(S(=O)(=O)c3c(C)noc3/C=C/c3ccc(C)cc3)CC2)CC1	inactive: 78%
COc1cccc(Cn2c(=O)n(CC3CCC(C(=O)N4CCCCC4)CC3)c(=O)c3sccc32)c1 (stereo not drawn)	inactive: 55%
CCOC(=O)N1CCN(Cc2nc3cc(NC(C)=O)ccc3n2C(C)C)CC1	inactive: 89%
Cc1cc(C)cc(-n2c(SCC(=O)NCc3ccco3)nc3c([nH]c4ccccc43)c2=O)c1	inactive: 100%
CC(C)NC(=O)CCn1c(SCc2c(F)cccc2Cl)nc2c(sc3ccccc32)c1=O	inactive: 67%
COc1cc(CNc2ccc3[nH]c(=O)[nH]c3c2)ccc1OCc1ccc(F)cc1Cl	inactive: 89%
COC(=O)c1ccc2c(=O)n3nc(Nc4ccc(F)cc4F)sc3nc2c1	inactive: 88%
COc1ccc(CN2CCc3c(c(=O)n4ncc(C(=O)N5CCN(c6ccccc6F)CC5)c4n3C)C2)cc1	inactive: 88%
Cc1cccc(N2CCN(C(=O)c3nn(C)c4c3CS(=O)(=O)c3ccccc3-4)CC2)c1C	inactive: 67%
CS(=O)(=O)N(Cc1ccccc1)c1ccc(C(=O)Nc2cccc(Cl)c2)cc1	active: 36%
COc1ccc(CNC(=O)c2ccc3c(O)c(S(=O)(=O)c4ccccc4)c(=O)[nH]c3c2)cc1	inactive: 99%
COc1ccc(NC(=O)c2c(NC(=O)C(F)(F)F)sc3c2CCCCC3)cc1	active: 2%
CCCCC1CCC(C(=O)N2CC(=O)Nc3ccc(C)cc3C2c2ccc(F)cc2)CC1 (stereo not drawn)	inactive: 126%
COc1ccc(Cn2ccc3nc(C)c(C(=O)N4CCN(c5cccc(OC)c5)CC4)cc3c2=O)cc1	inactive: 81%
O=C(CSc1nnc(Cc2csc(Nc3cccc(Cl)c3)n2)o1)c1ccc2c(c1)OCCO2	inactive: 99%
